Source: a collection of fitness landscapes (doi:10.1016/j.celrep.2020.107928)
Over roughly 81,000 sequences, “one-hybrid fitness for binding parS DNA” has its median near -0.17; the highest 2% begin near 0.51. This is one part of the list.

B1: Caulobacter ParB omega fusion; a variant is named by its letters at X, in order, B8GW30 (parent)
chain: MESVVVGEPGMSEGRRGLGRGLSALLGEVDAAPAQAPGEQLGGSREAPIEILQRNPDQPRRTFREEDLEDLSNSIREKGVLQPILVRPSPDTAGEYQIVAGERAWRAAQRAGLKTVPIMVRELDDLAVLEIGIIENVQRADLNVLEEALSYKVLMEKFERTQENIAQTIGKSXSHVANXMRLLXLPDEVQSYLVSGELTAXHARAIAAAADPVALAKQIIEGGLSVRETEALARKAPNLSAGKSKGGRPPRVKDTDTQALESDLSSVLGLDVSIDHRGSTGTLTITYATLEQLDDLCNRLTRGI

Variants of: B1
Assay: one-hybrid fitness for binding parS DNA (scaled: cognate 1, non-cognate 0); higher = stronger binding
Details: with parS DNA site
Procedure, shortened: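 Caulobacter ParB libraries with four specificity codons randomised were screened by bacterial one-hybrid selection in the E. coli USO strain, using a HIS3 reporter whose site lies 19 bp from the promoter. Selection ran for 48 hours at 37°C on M9 lacking histidine, with 0.1 mM IPTG and 5 mM 3-AT. Plasmids were Illumina-sequenced before and after selection, three replicate libraries were pooled, and variants with under 10 reads were dropped. Fitness is the log change in each variant's read ratio to wild type, rescaled against the cognate and non-cognate sites.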

| Variant | one-hybrid fitness for binding parS DNA |
| --- | --- |
| DSMA | ≤ 0.2 |
| ALDG | ≤ 0.2 |
| RHNA | 0.543 |
| PRWN | ≤ 0.2 |
| RFAK | ≤ 0.2 |
| MRDC | ≤ 0.2 |
| QRVM | ≤ 0.2 |
| METF | ≤ 0.2 |
| MGLT | ≤ 0.2 |
| YMQR | ≤ 0.2 |
| TMPN | ≤ 0.2 |
| VRGK | ≤ 0.2 |
| VDID | ≤ 0.2 |
| YRAT | ≤ 0.2 |
| EIKM | ≤ 0.2 |
| RNGE | ≤ 0.2 |
| DDTF | ≤ 0.2 |
| YNWT | ≤ 0.2 |
| LCVL | ≤ 0.2 |
| HERG | ≤ 0.2 |
| TQAE | ≤ 0.2 |
| PVDR | ≤ 0.2 |
| WKLC | ≤ 0.2 |
| LPLQ | ≤ 0.2 |

| Variant | one-hybrid fitness for binding parS DNA |
| --- | --- |
| RIAG | 0.997 |
| WSDF | ≤ 0.2 |
| HHAL | ≤ 0.2 |
| RPGP | ≤ 0.2 |
| HRID | ≤ 0.2 |
| THCI | ≤ 0.2 |
| WMGR | ≤ 0.2 |
| LQEI | ≤ 0.2 |
| NFRS | ≤ 0.2 |
| HMMK | ≤ 0.2 |
| DISI | ≤ 0.2 |
| IVWC | ≤ 0.2 |
| QVNH | ≤ 0.2 |
| IVLW | ≤ 0.2 |
| KFRE | ≤ 0.2 |
| CCER | ≤ 0.2 |
| LLKE | ≤ 0.2 |
| SLTQ | ≤ 0.2 |
| LATV | ≤ 0.2 |
| NVIC | ≤ 0.2 |
| VTGV | ≤ 0.2 |
| RWEL | ≤ 0.2 |
| WFTC | ≤ 0.2 |
| TWDF | ≤ 0.2 |

| Variant | one-hybrid fitness for binding parS DNA |
| --- | --- |
| IMTW | ≤ 0.2 |
| TMHM | ≤ 0.2 |
| QKNQ | ≤ 0.2 |
| IMKS | ≤ 0.2 |
| HAVW | ≤ 0.2 |
| CFLS | ≤ 0.2 |
| GMYS | ≤ 0.2 |
| LCMV | ≤ 0.2 |
| TALT | ≤ 0.2 |
| MTTC | ≤ 0.2 |
| KHVR | ≤ 0.2 |
| CDSC | ≤ 0.2 |
| KHPI | ≤ 0.2 |
| ETNQ | ≤ 0.2 |
| TDTM | ≤ 0.2 |
| TCYR | ≤ 0.2 |
| HFAG | ≤ 0.2 |
| QDVI | ≤ 0.2 |
| NPEG | ≤ 0.2 |
| CYDR | ≤ 0.2 |
| LESW | ≤ 0.2 |
| QSAF | ≤ 0.2 |
| IQLP | ≤ 0.2 |
| MESK | ≤ 0.2 |

| Variant | one-hybrid fitness for binding parS DNA |
| --- | --- |
| MLCM | ≤ 0.2 |
| PPMV | ≤ 0.2 |
| MYEG | ≤ 0.2 |
| DQHS | ≤ 0.2 |
| CFQG | ≤ 0.2 |
| AAAG | ≤ 0.2 |
| CFNE | ≤ 0.2 |
| YHLC | ≤ 0.2 |
| LSWN | ≤ 0.2 |
| WGAA | ≤ 0.2 |
| KQWR | ≤ 0.2 |
| DGSD | ≤ 0.2 |
| KTFV | ≤ 0.2 |
| QGVM | ≤ 0.2 |
| VNAN | ≤ 0.2 |
| IAYG | ≤ 0.2 |
| DCIM | ≤ 0.2 |
| QVVY | ≤ 0.2 |
| GQFC | ≤ 0.2 |
| THNI | ≤ 0.2 |
| GELK | ≤ 0.2 |
| QNAR | ≤ 0.2 |
| LMSF | ≤ 0.2 |
| SIML | ≤ 0.2 |

| Variant | one-hybrid fitness for binding parS DNA |
| --- | --- |
| IPDY | ≤ 0.2 |
| LTFV | ≤ 0.2 |
| VDDL | ≤ 0.2 |
| NATY | ≤ 0.2 |
| TQVV | ≤ 0.2 |
| RWNQ | ≤ 0.2 |
| TCAW | ≤ 0.2 |
| SYLA | ≤ 0.2 |
| PYTG | ≤ 0.2 |
| HFNS | ≤ 0.2 |
| RCEE | ≤ 0.2 |
| QGMG | ≤ 0.2 |
| WGRS | ≤ 0.2 |
| GVDV | ≤ 0.2 |
| CHWG | ≤ 0.2 |
| TDTL | ≤ 0.2 |
| RTAE | ≤ 0.2 |
| DCSG | ≤ 0.2 |
| KDNS | ≤ 0.2 |
| VMPL | ≤ 0.2 |
| SSCC | ≤ 0.2 |
| RSYW | ≤ 0.2 |
| ENKG | ≤ 0.2 |
| STMD | ≤ 0.2 |

| Variant | one-hybrid fitness for binding parS DNA |
| --- | --- |
| IGKY | ≤ 0.2 |
| FQVR | ≤ 0.2 |
| ARQY | ≤ 0.2 |
| HALG | ≤ 0.2 |
| LPVA | ≤ 0.2 |
| NLTY | ≤ 0.2 |
| LHPQ | ≤ 0.2 |
| IFTF | ≤ 0.2 |
| WPMG | ≤ 0.2 |
| SKGG | ≤ 0.2 |
| YIHK | ≤ 0.2 |
| QVMR | ≤ 0.2 |
| PRTW | ≤ 0.2 |
| RREP | ≤ 0.2 |
| GRYS | ≤ 0.2 |
| VPNP | ≤ 0.2 |
| RMIE | ≤ 0.2 |
| RRSM | 0.364 |
| KCNS | ≤ 0.2 |
| AAAF | ≤ 0.2 |
| HPDL | ≤ 0.2 |
| DHQG | ≤ 0.2 |
| RNSV | ≤ 0.2 |
| VMQK | ≤ 0.2 |

| Variant | one-hybrid fitness for binding parS DNA |
| --- | --- |
| FFSS | ≤ 0.2 |
| STAT | ≤ 0.2 |
| NGWS | ≤ 0.2 |
| NEAS | ≤ 0.2 |
| SCPR | ≤ 0.2 |
| CVFC | ≤ 0.2 |
| QVTW | ≤ 0.2 |
| IMEG | ≤ 0.2 |
| KMSY | ≤ 0.2 |
| LLMM | ≤ 0.2 |
| FGWS | ≤ 0.2 |
| YPFR | ≤ 0.2 |
| LGDS | ≤ 0.2 |
| LSFP | ≤ 0.2 |
| VPDG | ≤ 0.2 |
| VMCT | ≤ 0.2 |
| CDED | ≤ 0.2 |
| FQPY | ≤ 0.2 |
| KKQS | ≤ 0.2 |
| ITSF | ≤ 0.2 |
| FNRT | ≤ 0.2 |
| LWPE | ≤ 0.2 |
| NIVC | ≤ 0.2 |
| HWNS | ≤ 0.2 |

| Variant | one-hybrid fitness for binding parS DNA |
| --- | --- |
| TNSG | ≤ 0.2 |
| TFLW | ≤ 0.2 |
| KCEY | ≤ 0.2 |
| DQQR | ≤ 0.2 |
| TTWL | ≤ 0.2 |
| CPHR | ≤ 0.2 |
| GPMC | ≤ 0.2 |
| HFAF | ≤ 0.2 |
| YKLA | ≤ 0.2 |
| LCCM | ≤ 0.2 |
| RTIH | ≤ 0.2 |
| TWHS | ≤ 0.2 |
| LPRI | ≤ 0.2 |
| RYTR | ≤ 0.2 |
| EHSR | ≤ 0.2 |
| HGQG | ≤ 0.2 |
| VNMC | ≤ 0.2 |
| HRRF | ≤ 0.2 |
| KMPV | ≤ 0.2 |
| PTWR | ≤ 0.2 |
| AMVR | ≤ 0.2 |
| LSVM | ≤ 0.2 |
| HGRC | ≤ 0.2 |
| KRRF | ≤ 0.2 |

| Variant | one-hybrid fitness for binding parS DNA |
| --- | --- |
| WCSR | ≤ 0.2 |
| AYGD | ≤ 0.2 |
| TESN | ≤ 0.2 |
| VAEV | ≤ 0.2 |
| DECT | ≤ 0.2 |
| RAEF | ≤ 0.2 |
| LKLW | ≤ 0.2 |
| SAHF | ≤ 0.2 |
| PMTP | ≤ 0.2 |
| VVMG | ≤ 0.2 |
| TRNC | ≤ 0.2 |
| DGRA | ≤ 0.2 |
| MMFL | ≤ 0.2 |
| THAF | ≤ 0.2 |
| RAIG | 0.871 |
| CPPE | ≤ 0.2 |
| WLLT | ≤ 0.2 |
| CKTY | ≤ 0.2 |
| WRWR | ≤ 0.2 |
| IHDT | ≤ 0.2 |
| PFTE | ≤ 0.2 |
| RGVA | ≤ 0.2 |
| PCYW | ≤ 0.2 |
| STLL | ≤ 0.2 |

| Variant | one-hybrid fitness for binding parS DNA |
| --- | --- |
| LIRK | ≤ 0.2 |
| MGKF | ≤ 0.2 |
| SWRH | ≤ 0.2 |
| PFQV | ≤ 0.2 |
| PLDV | ≤ 0.2 |
| PPAV | ≤ 0.2 |
| GAFR | ≤ 0.2 |
| RMQF | ≤ 0.2 |
| SDER | ≤ 0.2 |
| ILSM | ≤ 0.2 |
| LAKM | ≤ 0.2 |
| TPKS | ≤ 0.2 |
| PCRK | ≤ 0.2 |
| LEVD | ≤ 0.2 |
| DYTY | ≤ 0.2 |
| QACE | ≤ 0.2 |
| LVMT | ≤ 0.2 |
| TACD | ≤ 0.2 |
| HWNF | ≤ 0.2 |
| SCFG | ≤ 0.2 |
| FSKV | ≤ 0.2 |
| FGQG | ≤ 0.2 |
| NTPT | ≤ 0.2 |
| TTVE | ≤ 0.2 |

| Variant | one-hybrid fitness for binding parS DNA |
| --- | --- |
| WTSW | ≤ 0.2 |
| SHSP | ≤ 0.2 |
| ICLG | ≤ 0.2 |
| ESNC | ≤ 0.2 |
| AQWG | ≤ 0.2 |
| SYEE | ≤ 0.2 |
| DCVR | ≤ 0.2 |
| AKEL | ≤ 0.2 |
| TAIS | ≤ 0.2 |
| YKNC | ≤ 0.2 |
| NSAD | ≤ 0.2 |
| VEMS | ≤ 0.2 |
| ACRG | ≤ 0.2 |
| MNRY | ≤ 0.2 |
| RLGT | 0.925 |
| YYHL | ≤ 0.2 |
| QYDL | ≤ 0.2 |
| GRTV | ≤ 0.2 |
| RTGT | 0.912 |
| ASEM | ≤ 0.2 |
| AHFR | ≤ 0.2 |
| NLNN | ≤ 0.2 |
| GVQN | 0.23 |
| YNQC | ≤ 0.2 |

| Variant | one-hybrid fitness for binding parS DNA |
| --- | --- |
| TVDN | ≤ 0.2 |
| VTYI | ≤ 0.2 |
| PDRM | ≤ 0.2 |
| QARC | ≤ 0.2 |
| SINI | ≤ 0.2 |
| QYLI | ≤ 0.2 |
| RGCP | ≤ 0.2 |
| QKTG | ≤ 0.2 |
| PVKE | ≤ 0.2 |
| IPSF | ≤ 0.2 |
| NTPM | ≤ 0.2 |
| PSGT | ≤ 0.2 |
| QEYI | ≤ 0.2 |
| SVMT | ≤ 0.2 |
| LQHT | ≤ 0.2 |
| FQMS | ≤ 0.2 |
| RKFM | 0.319 |
| PAET | ≤ 0.2 |
| CKIL | ≤ 0.2 |
| FAHS | ≤ 0.2 |
| FVSS | ≤ 0.2 |
| YTYW | ≤ 0.2 |
| PEFG | ≤ 0.2 |
| ENGW | ≤ 0.2 |

| Variant | one-hybrid fitness for binding parS DNA |
| --- | --- |
| MYPC | ≤ 0.2 |
| NFSL | ≤ 0.2 |
| CAAF | ≤ 0.2 |
| LFKK | ≤ 0.2 |
| TTWR | ≤ 0.2 |
| IQYR | ≤ 0.2 |
| LEMG | ≤ 0.2 |
| TFQV | ≤ 0.2 |
| RNMK | ≤ 0.2 |
| PMNC | ≤ 0.2 |
| YELR | ≤ 0.2 |
| GVQS | ≤ 0.2 |
| WVTF | ≤ 0.2 |
| RGFF | ≤ 0.2 |
| PIDV | ≤ 0.2 |
| SAGV | ≤ 0.2 |
| RLMI | ≤ 0.2 |
| VAYC | ≤ 0.2 |
